Reference: paper PMC4336329 (PLoS ONE, 2015)
Out of some 310,000 compounds screened, about 14,000 (4.5%) showed an effect of 50% or more. Effects have a minus sign here. This is one part of the list.

The compounds below were run against human ether-à-go-go-related gene (hERG) potassium channel (human, UniProt Q12809) (assay: primary screen, population patch clamp on CHO cells stably expressing hERG).
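Note: peak tail current of the secondary pulse compared with the same well before compound.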

Chain of human ether-à-go-go-related gene (hERG) potassium channel (Q12809 whole entry, looked up): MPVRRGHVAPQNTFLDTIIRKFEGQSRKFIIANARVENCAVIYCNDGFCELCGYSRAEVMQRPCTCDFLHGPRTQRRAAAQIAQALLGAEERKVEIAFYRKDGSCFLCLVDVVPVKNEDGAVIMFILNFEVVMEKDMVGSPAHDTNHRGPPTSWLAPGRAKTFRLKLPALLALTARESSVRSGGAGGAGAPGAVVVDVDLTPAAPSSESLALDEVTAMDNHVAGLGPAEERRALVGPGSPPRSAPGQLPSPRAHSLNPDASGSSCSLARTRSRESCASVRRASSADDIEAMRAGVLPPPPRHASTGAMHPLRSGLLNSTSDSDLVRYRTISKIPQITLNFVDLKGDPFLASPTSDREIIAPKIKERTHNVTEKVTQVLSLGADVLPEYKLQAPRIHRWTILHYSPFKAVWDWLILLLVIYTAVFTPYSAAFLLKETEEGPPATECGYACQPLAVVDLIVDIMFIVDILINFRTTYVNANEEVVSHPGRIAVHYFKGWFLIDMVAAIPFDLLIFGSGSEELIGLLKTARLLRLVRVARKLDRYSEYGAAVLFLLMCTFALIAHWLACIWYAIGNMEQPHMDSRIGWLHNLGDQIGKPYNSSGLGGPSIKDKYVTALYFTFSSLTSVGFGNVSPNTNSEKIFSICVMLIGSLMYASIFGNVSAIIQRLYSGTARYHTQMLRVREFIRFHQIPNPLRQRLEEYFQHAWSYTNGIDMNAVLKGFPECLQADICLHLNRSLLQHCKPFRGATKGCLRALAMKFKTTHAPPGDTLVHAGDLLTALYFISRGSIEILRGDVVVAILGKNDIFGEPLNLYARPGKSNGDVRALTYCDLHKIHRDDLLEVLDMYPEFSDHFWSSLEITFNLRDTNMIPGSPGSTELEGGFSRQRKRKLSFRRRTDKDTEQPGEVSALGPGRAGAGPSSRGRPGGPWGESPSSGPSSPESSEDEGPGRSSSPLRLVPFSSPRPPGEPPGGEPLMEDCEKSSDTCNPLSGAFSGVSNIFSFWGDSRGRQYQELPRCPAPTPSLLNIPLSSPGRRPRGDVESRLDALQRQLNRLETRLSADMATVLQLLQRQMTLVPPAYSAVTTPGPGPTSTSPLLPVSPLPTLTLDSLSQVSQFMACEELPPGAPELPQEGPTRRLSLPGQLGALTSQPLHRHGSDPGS

Row | SMILES | hERG current change (%, negative = inhibition) at 10uM
1 | CN(CCNC(=O)c1cn(C)c2ccc(S(=O)(=O)N(C)C)cc2c1=O)CCc1ccccc1 | -27.1%
2 | CCOc1cccc(SCc2noc(C(=O)NCC3CCCO3)c2C(=O)O)c1 (stereo not shown) | 32.2%
3 | CCOc1ccc2ccccc2c1CNc1nnnn1CC | -9.78%
4 | CC(=O)c1c(C(C)=O)c(C)n(-c2nc(-c3ccc(C)c(C)c3)c(C)s2)c1C | 25%
5 | COc1ccccc1C(=O)NC(C)c1cccc2ccccc12 (stereo not shown) | 8.02%
6 | CCCN1C(=O)/C(=C/c2ccccc2OCc2ccc(C(=O)O)cc2)NC1=S | 10.3%
7 | CCOc1ccc(N2C(=O)CC(Sc3n[nH]c(-c4ccccc4)n3)C2=O)cc1 (stereo not shown) | -9.03%
8 | N#Cc1nc(-c2ccccc2F)oc1N1CCCC1 | 9.47%
9 | Cc1ccc(C(=O)NCCC(=O)N2CCC3(CC2)NCCc2[nH]cnc23)cc1C | 16.8%
10 | Cc1ccc(S(=O)(=O)N2CCCC2C(=O)N(C)Cc2cccs2)cc1 (stereo not shown) | -19.9%
11 | Cc1ccc(C)c2c3c([nH]c12)-c1nonc1CC3 | -1.57%
12 | CCn1c(SCC(=O)NC2CCCC2)nnc1C(C)NC(=O)c1ccccc1F (stereo not shown) | 18.1%
13 | O=C(Cc1csc(Nc2nc(=S)[nH]c3ccccc23)n1)N1CCN(c2cccc(Cl)c2)CC1 | 14.7%
14 | O=C1c2nc3cc(-c4ccco4)[nH]n3c(=O)c2CN1C1CCCCC1 | 9.25%
15 | Cc1cccc(NC(=O)Cc2coc3ccc4ccccc4c23)n1 | -20.7%
16 | O=C(O)C(=O)O.O=C(c1ccccc1)c1ccc(OCC(O)CNCc2cccc(Cl)c2)cc1 (stereo not shown) | -60.3%
17 | COC(=O)c1ncn(C2OC(COC(C)=O)C(OC(C)=O)C2OC(C)=O)n1 (stereo not shown) | 26.8%
18 | CCN1C(=O)[C@H]2[C@@H](c3ccc(-c4ccc(Cl)c(Cl)c4)c(OC)c3)N[C@@](Cc3ccccc3)(C(=O)OC)[C@H]2C1=O.O=C(O)C(F)(F)F | 24.4%
19 | Cc1ccc(/C=N/Nc2ncc(Cl)cc2Cl)s1 | 10.1%
20 | COC1=C(Nc2ccc(C)cc2)C(=O)c2ccccc2C1=O | 5.87%
21 | CN(CCc1ccccn1)Cc1ccc(Cl)cc1 | -53.7%
22 | Cn1cccc1/C=N/NC(=O)CNc1cccc2ccccc12 | -10.6%

Row | SMILES | hERG current change (%, negative = inhibition) at 10uM
23 | C=CCn1c(SCc2csc(-c3ccc(Cl)cc3)n2)nnc1-c1ccccc1OC | -23.5%
24 | CCOc1ccc(/C=N/NC(=O)Cc2ccccc2)cc1CN1CC2CC(C1)c1cccc(=O)n1C2 (stereo not shown) | -12%
25 | O=S(=O)(Nc1ccon1)c1cc(Cl)ccc1Cl | 12%
26 | CCCCN(C)C(=O)C(Cc1ccccc1)NS(=O)(=O)c1ccc2c(c1)CCC(=O)N2 (stereo not shown) | -22.6%
27 | Cc1nn(-c2ccc(Cl)cc2)c2[nH]c(=O)c(CNCc3ccc4c(c3)OCO4)cc12 | -70%
28 | O=C(NC(=S)Nc1nc2ccc(F)cc2s1)c1ccco1 | -0.322%
29 | CCOc1cc(CN2CCN(c3cccc(C(F)(F)F)c3)CC2)ccc1OC | -16.6%
30 | CCOC(=O)N1CCN(c2c(NCc3ccccc3Cl)c(=O)c2=O)CC1 | 3.9%
31 | N/C(=N\O)c1ccncc1 | 9.94%
32 | CCC(C(=O)OCC(=O)N(CC)c1c(N)n(Cc2ccccc2)c(=O)[nH]c1=O)c1ccccc1 (stereo not shown) | 9.61%
33 | O=C(Nc1ccc(Cl)cc1)c1cccc(N2C(=O)C3C4CCC(C4)C3C2=O)c1 (stereo not shown) | -7.49%
34 | CC(C)c1nnc(NC(=O)c2c(O)c3cccc4c3n(c2=O)CCC4)s1 | 9.59%
35 | Cc1cccc(NS(=O)(=O)c2cn(C)c(=O)n(C)c2=O)c1C | 10.8%
36 | O=C(Nc1cccc(S(=O)(=O)NC2=NCCCCC2)c1)c1cc(-c2ccccc2Cl)nc2ccccc12 | 4.3%
37 | COc1ccc(S(=O)(=O)N2CCN(c3ccccc3OC)CC2)cc1OC | -2.71%
38 | CC(=O)c1ccc(N2CCN(C(=O)C3CCCN(S(=O)(=O)c4c(C)[nH]c(=O)[nH]c4=O)C3)CC2)cc1 (stereo not shown) | 23.4%
39 | CCOC(=O)N1CCN(S(=O)(=O)c2cccc3ccc(C)nc23)CC1 | -7.34%
40 | Cc1ccccc1S(=O)(=O)Nc1nc2ccccc2nc1N1CCc2ccccc2C1 | 12.9%
41 | C=CCN1C(=O)C(CC(=O)NCC)SC1=Nc1cc(Cl)ccc1Cl (stereo not shown) | -2.76%
42 | CCC(C)c1ccccc1NC(=O)COC(=O)c1ccc(C)c(NC(=O)c2ccco2)c1 (stereo not shown) | -8.97%
43 | CCOc1ccc(NC(=O)CN2C(=O)CSc3ccc(S(=O)(=O)N4CCOCC4)cc32)cc1 | -24.9%
44 | CN1CCC(=NNC(=O)c2ccc(N(Cc3ccccc3Cl)S(C)(=O)=O)cc2)CC1 | -6.81%

Row | SMILES | hERG current change (%, negative = inhibition) at 10uM
45 | CC(/C=C\c1cccnc1)=C/C(=O)O | -1.28%
46 | CCc1ccc([C@@H]2CC=C(C(=O)O)CN2S(=O)(=O)c2ccc(C)cc2)cc1 | 8.05%
47 | c1ccc2nc3c(nc2c1)OCC1CCCCN31 (stereo not shown) | -14.2%
48 | Cc1ccc(/C=N/N2CCN(c3ccccn3)CC2)o1 | 14.4%
49 | OCCC1CN(Cc2ccc3nsnc3c2)CCN1CCc1ccccc1 (stereo not shown) | -82.2%
50 | Cc1ccc2[nH]c(-c3ccccc3)c(CN(C)C)c(=O)c2c1 | -17.1%
51 | CC(=O)Nc1ccc(C(=O)OCC(=O)Nc2ccc([N+](=O)[O-])cc2C(F)(F)F)cc1 | 7.22%
52 | CCOC(=O)c1cc(C(C)(C)C)oc1CNC(=O)c1c(C)oc2c1CCCC2 | -18.5%
53 | CC(C)CCNc1nc(N)c([N+](=O)[O-])c(N2CCCCCC2)n1 | 12.1%
54 | CCOCCCNC(=O)C(NC(=O)CNC(C)=O)c1ccc(C)cc1 (stereo not shown) | -5.12%
55 | CN1C(=O)C(=O)N(c2cccc(C(F)(F)F)c2)C1=O | 2.38%
56 | COc1cc(/C=N/NC(=O)C(=O)NCc2cccnc2)cc(OC)c1OC | 5.17%
57 | Cc1cc(C(=O)COC(=O)c2ccc(O)cc2)c(C)n1CC1COc2ccccc2O1 (stereo not shown) | -3.06%
58 | COc1ccccc1NC(=S)N1CCC(c2nc3cc(C)c(C)cc3[nH]2)CC1 | -21%
59 | CC(C)OC(=O)c1sc2nc(-c3ccccc3)ccc2c1N | 16.7%
60 | O=C(NCCc1ccc(Cl)cc1)C1CCCN(c2ncnc3c2nc2n3CCCCC2)C1 (stereo not shown) | -57.2%
61 | Cc1ccc(C(=O)NCC(=O)OCC(=O)NCCNC(=O)COC(=O)CNC(=O)c2ccc(C)cc2)cc1 | 12.3%
62 | COc1ccc(OC)c(NC(=O)c2cnc3n(c2=O)CCS3)c1 | 3.23%
63 | N#Cc1c(NC(=O)CSc2n[nH]c(Cc3ccccc3)n2)oc(-c2ccccc2)c1-c1ccccc1 | 6.47%
64 | CCn1cc(S(=O)(=O)c2ccccc2)c(=O)c2cc(F)c(N3CCN(C)CC3)cc21 | 9.46%
65 | Cc1ccc(OC(=O)c2oc3ccc(F)cc3c2C)c(C)c1 | -2.61%
66 | COc1cccc(CNC(=O)c2cc(C3CC3)nc3c2cnn3C(C)C)c1 | -24.4%

Row | SMILES | hERG current change (%, negative = inhibition) at 10uM
67 | Cc1ccc(-n2c(N)c(C(=O)NCc3cccnc3)sc2=S)cc1 | 23.5%
68 | COc1ccccc1CC(=O)N1CCN(c2ccc([N+](=O)[O-])cc2)CC1 | -52%
69 | COc1cc(C2Nc3ccccc3C(=O)N2NS(C)(=O)=O)c([N+](=O)[O-])cc1OC (stereo not shown) | 4.47%
70 | C/C(NC1CCCCC1)=C(/C#N)C(=O)NCCN1CCOCC1 | 10.1%
71 | Nc1ccc(Cl)cc1C(=O)c1ccccc1Cl | -4.91%
72 | O=C(COC(=O)/C=C/c1nc2ccccc2s1)Nc1cccc(Cl)c1Cl | 7.45%
73 | O=[N+]([O-])c1cccc2c(N3CCOCC3)ccnc12 | -17.6%
74 | CC(C)(C)N1CC(C(=O)O)CC1=O (stereo not shown) | 28.9%
75 | CC(=O)c1ccc(NC(=O)CSC2=NS(=O)(=O)c3cc(Cl)ccc3N2)cc1 | 14.7%
76 | COc1ccccc1OCC(=O)Nc1ccccn1 | 8.47%
77 | Cc1cc2c(c(C)nn2-c2ccccc2)c(=O)o1 | 3.22%
78 | CCOC(=O)c1c(C(=O)OCC)c(C)n(Cc2cc(OC)c(OC)c(OC)c2)c1C | 16.9%
79 | COc1cc(NC(=O)C2Cc3ccccc3CN2S(C)(=O)=O)cc(OC)c1 (stereo not shown) | 10.9%
80 | CCOC(=O)N1CCN(C(=O)CCCOc2ccccc2)CC1 | -0.00622%
81 | CCN(C(=O)COC(=O)c1ccccc1Cc1ccccc1)C1CCS(=O)(=O)C1 (stereo not shown) | -27.6%
82 | CCOC(=O)C(NC(=O)CC)(Nc1nc2c(s1)CCCC2)C(F)(F)F (stereo not shown) | 0.445%
83 | CCOC(=O)c1c(C)[nH]c(C)c1S(=O)(=O)N(C)CC(=O)Nc1ccccc1C | 14.4%
84 | Cc1ccc(-n2cccn2)c([C@@H]2C[C@H]3CN(C)C(=O)[C@]34CCCN24)c1 | -61.1%
85 | CC(=O)c1cccc(NC(=O)CN(C)S(=O)(=O)c2ccc3c(c2)CCC(=O)N3)c1 | -5.16%
